The source of these data is PubChem BioAssay AID488969 (Vanderbilt High Throughput Screening Facility, 2010).

Over roughly 110,000 compounds, “z-score” has its median near -0.1; the highest 2% begin near 2. Some of the results follow.

In the experiment the target is Metabotropic glutamate receptor 8 (Rattus norvegicus) (UniProt P70579). Briefly: rat mGluR8 modulators via GIRK flux, primary screen, cell-based, thallium flux, HTS (AID 488969). Particulars: HEK293 rat mGluR8, GIRK (G protein-gated inwardly rectifying potassium channel) thallium flux, FluoZin2; at 10 µM; stronger effect = higher value; submaximal glutamate (EC20) added with thallium.
Sequence of UniProt P70579 (P70579 whole entry, looked up): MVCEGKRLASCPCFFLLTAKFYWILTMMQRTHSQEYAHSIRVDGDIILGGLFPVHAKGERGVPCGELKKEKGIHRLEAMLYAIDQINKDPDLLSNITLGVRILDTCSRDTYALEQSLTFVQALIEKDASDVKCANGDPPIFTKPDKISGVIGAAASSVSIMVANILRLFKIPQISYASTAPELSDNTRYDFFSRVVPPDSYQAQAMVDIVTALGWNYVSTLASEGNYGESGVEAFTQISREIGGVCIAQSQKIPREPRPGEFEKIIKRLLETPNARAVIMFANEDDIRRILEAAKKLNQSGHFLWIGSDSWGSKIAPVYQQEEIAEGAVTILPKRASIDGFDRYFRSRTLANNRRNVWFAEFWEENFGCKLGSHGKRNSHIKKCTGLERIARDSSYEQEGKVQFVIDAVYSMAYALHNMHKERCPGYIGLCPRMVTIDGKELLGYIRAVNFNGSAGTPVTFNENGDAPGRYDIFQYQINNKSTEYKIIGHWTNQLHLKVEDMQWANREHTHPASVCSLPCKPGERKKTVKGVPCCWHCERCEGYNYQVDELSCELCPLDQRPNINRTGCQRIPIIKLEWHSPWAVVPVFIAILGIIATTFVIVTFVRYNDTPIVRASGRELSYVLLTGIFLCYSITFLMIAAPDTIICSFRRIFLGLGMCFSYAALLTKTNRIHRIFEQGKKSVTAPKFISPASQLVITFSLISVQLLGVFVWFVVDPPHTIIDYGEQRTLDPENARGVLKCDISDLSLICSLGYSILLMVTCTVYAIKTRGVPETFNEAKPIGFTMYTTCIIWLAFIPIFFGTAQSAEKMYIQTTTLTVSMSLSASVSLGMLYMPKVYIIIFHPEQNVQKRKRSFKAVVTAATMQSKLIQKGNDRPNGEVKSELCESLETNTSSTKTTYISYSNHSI
Regarding `O=C(O)CSc1c2c(nc3cc(C(=O)N4CCOCC4)ccc13)CCCC2`, the z-score was -0.0589.

Regarding `CCC(C)NC(=O)CSc1nnc(-c2ccncc2)n1-c1ccc(OC)cc1` (stereo not drawn), the z-score is -1.15.

For `COc1ccc(C)cc1NC(=O)CN1CCN(C/C=C/c2ccccc2)CC1`, the z-score was -0.172.

Compound `CCN(CC)c1ccc(NC(=O)c2ccccc2)cc1S(=O)(=O)Nc1ccccc1OC` gave a z-score of -0.252.

Compound `CCc1nnc(NC(=O)CSc2nnc(CNc3ccc(OC)cc3)n2C)s1` gave a z-score of -0.289.

Turning to `CC(C(=O)N1CCCCC1)N1C(=O)c2ccccc2C1=O` (stereo not drawn), the z-score turned out to be 0.184.

Compound `Cc1nnc2n(c1=O)C(CS(=O)(=O)c1ccccc1)CS2` (stereo not drawn) displayed a z-score of -0.0882.

Consider `COc1cccc(C2/C(=C(\O)c3ccc4c(c3)OCCO4)C(=O)C(=O)N2CCCN(C)C)c1OC` (stereo not drawn), for which the z-score is 0.00077.

In turn, `O=C(Nc1ccc2c(c1)Cc1ccccc1-2)c1cc2ccccc2o1` had a z-score of 0.506.

`CC(=O)N1CCc2cc(S(=O)(=O)NCCCN3CCN(Cc4ccccc4)CC3)ccc21` gave a z-score of -0.184.

The compound `Cc1noc(/C=C/c2ccco2)c1S(=O)(=O)N1CCC(C(=O)NCc2ccco2)CC1` had a z-score of -0.937.

Take `O=C(Nc1cccnc1)c1ccc(NC(=O)c2ccco2)cc1`: the z-score is -0.0558.

In the case of `O=C(NNC(=S)NCc1ccco1)c1cccs1`, the z-score came to 0.0115.

Regarding `C/C(=N/NC(=O)C1CC1(c1ccccc1)c1ccccc1)c1cccs1` (stereo not drawn), the z-score was -0.154.

Consider `O=C(Oc1ccc2c3c(c(=O)oc2c1)CCC3)c1ccccc1[N+](=O)[O-]`, for which the z-score is -0.1.

Turning to `Cc1nnc(SCC(=O)Nc2nsc(-c3ccc(Cl)cc3)n2)s1`, the z-score was determined as 0.147.

For the compound `CCc1nc2c3cnn(-c4cc(Cl)ccc4C)c3ncn2n1`, the z-score is -0.413.

Consider `Cc1ccc(NC(=O)c2ccc3c(c2)N(CC(=O)N2CCCCC2)C(=O)C(C)(C)O3)cc1`, for which the z-score was -0.4.

On to `CSc1cc(C)n(-c2ccc(Cl)cc2)c(=S)c1C(C)=O`, for which the z-score is -0.101.

`CCN(Cc1ccccc1)C(=O)Cn1c(=O)n(CC(=O)NCc2ccco2)c(=O)c2sccc21`: the z-score was -0.184.

In the case of `C/C=C(/C)C(=O)OC1c2c(ccc3ccc(=O)oc23)OC(C)(C)C1OC(C)=O` (stereo not drawn), the z-score was -0.21.

Turning to `CCCCNC(=O)C1CCCN1C(=O)Nc1ccccc1` (stereo not drawn), the z-score was 0.0588.

With `O=[N+]([O-])c1cc2oc3c(c2c(C=NCc2ccccc2)c1O)CCCC3`, the z-score is -0.0638.

The compound `O=C(Nc1ccccc1C(=O)NCc1ccco1)NC1CCCCC1` displayed a z-score of -0.175.

The compound `O=C(NNC(=S)NC(=O)c1ccccc1[N+](=O)[O-])c1ccccc1Cl` gave a z-score of -0.333.

`COc1cc(Cl)c(C)cc1NC(=O)CSc1nnc(-c2ccccn2)n1Cc1ccco1`: the z-score is -0.14.

With `COc1nn(CC(=O)N2N=C(C)CC2(O)C(F)F)cc1[N+](=O)[O-]` (stereo not drawn), the z-score is -0.265.

Regarding `CC1CCC2(CC1)NC(CO)(CO)CO2` (stereo not drawn), the z-score is 0.0471.

In turn, `CC(=O)N1CCN=C1SCc1ccccc1Cl` yielded a z-score of 0.0781.

Consider `CCN(C(=O)COC(=O)c1ccc(OCc2c(C)noc2C)cc1)c1ccccc1`, for which the z-score is -2.

The compound `CC1=CC(c2ccccc2)n2nc(N3C(=O)C4CC=CCC4C3=O)nc2N1` (stereo not drawn) returned a z-score of -0.783.

Turning to `CCN(C(=O)c1cc2cccc(OC)c2oc1=O)C1CCCCC1`, the z-score is -0.137.

Compound `CC(C)c1ccc2c(c1)C(c1ccc(N3CCOCC3)cc1)=NNC(c1cccs1)=N2` showed a z-score of 0.382.

Compound `Cc1ccc(/C=C(\C#N)c2nn(-c3ccccc3)c(N)c2C#N)cc1` came in with a z-score of -0.255.

The compound `COC(=O)C1=C(C)Nc2nnnn2C1c1ccccc1Cl` (stereo not drawn) yielded a z-score of -2.07.

For `CN(C(=O)c1ccncc1)C1CC(C)(C)N(O)C(C)(C)C1`, the z-score worked out at 0.566.

In the case of `CCCOc1ccc(OCCOCCN2CCc3ccccc3C2)cc1`, the z-score stood at 0.597.

Compound `O=C(Nc1ccccc1F)c1cc(S(=O)(=O)N2CCCCC2)cs1` came in with a z-score of -0.167.

Compound `O=C(c1ccc2c(c1)OCO2)N1CCN(c2ncccn2)CC1` displayed a z-score of -0.381.

`CCOC(=O)N1CCC(NC(=O)c2cc3sccc3n2CC)CC1` showed a z-score of 0.349.

Turning to `Cc1cccc(C)c1N(CC(=O)N1CCN(C)CC1)S(C)(=O)=O`, the z-score was -0.00135.

As to `Cc1cc(NC(=O)CSc2nnc(-c3ccc(Br)o3)n2Cc2ccccc2)no1`, the z-score was -1.65.

For `CCCC(=O)NC1C2CC3CC(C2)CC1C3` (stereo not drawn), the z-score was found to be 0.313.

In turn, `COc1ccc(NC(=O)CSc2nc(N)c3cc4c(nc3n2)CCCC4)cc1` returned a z-score of -0.916.

On to `CCN(CCNc1ccc(Cl)cc1[N+](=O)[O-])C(=O)c1cc([N+](=O)[O-])c(N(C)C)cc1OC`, for which the z-score was 0.897.

Take `Cc1cccc(-c2nc3ccccc3c3nncn23)c1`: the z-score is 1.07.

In turn, `Cc1cccc(N2CCN(C(=O)c3cc(C)oc3C)CC2C)c1` (stereo not drawn) had a z-score of 1.2.

`Cc1ccc(SCCC(=O)NCCSCc2ccccc2C)cc1` had a z-score of -0.15.

In turn, `O=C(O)c1cccc(N/N=C/c2cccs2)c1` showed a z-score of -1.59.

`Cc1ccc(NC(=O)Cn2c(/C=C/c3ccccc3)nc3ccccc32)cc1C` gave a z-score of -0.495.

As to `O=c1cc(/N=C/c2coc3c(ccc4ccccc43)c2=O)[nH]c(=S)[nH]1`, the z-score was 0.013.

The compound `COc1cccc(/C(O)=C/c2nc3ccc(C(=O)NCCc4ccc(Cl)cc4)cc3[nH]c2=O)c1` displayed a z-score of -0.143.

`Cc1ccc(-c2nn3c(C)nnc3s2)cc1NC(=O)c1ccc(-c2cccc(Cl)c2)o1` gave a z-score of -0.98.

Turning to `O=C(Nc1ccccc1)c1ccc(N2CCN(c3ccccn3)CC2)c(S(=O)(=O)N2CCOCC2)c1`, the z-score was -0.415.

The compound `CCOC(=O)c1c(NC(=O)C2COc3ccccc3O2)sc(C)c1C` (stereo not drawn) came in with a z-score of 0.0349.

In the case of `COc1cc(NC(=S)N2CCCC(CO)C2)c(OC)cc1Cl` (stereo not drawn), the z-score is -0.0639.

Take `N#CC1=C2SCN(Cc3ccco3)CN2C(=O)CC1c1cccc2ccccc12` (stereo not drawn): the z-score is 0.457.

In turn, `CC(C)c1nc(SCC(=O)Nc2ccc3c(c2)OCCO3)c2c(=O)n(C)c(=O)n(C)c2n1` came in with a z-score of -0.492.

`Cn1c(SCc2nc(-c3ccccc3)no2)nnc1-c1ccco1`: the z-score is -0.441.

Compound `COc1ccccc1N1CCN(C(=O)c2ccc(Cl)c(S(=O)(=O)NCc3ccco3)c2)CC1` returned a z-score of -0.264.

For `Cc1cccc2[nH]c3c(N4CCN(C(=O)c5ccco5)CC4)ncnc3c12`, the z-score is -0.406.

As for `CC(C)(C)NC(=O)C(c1ccncc1)N(Cc1cccs1)C(=O)Cn1nnc(-c2cccs2)n1` (stereo not drawn), the z-score is -0.0939.

For the compound `C/C(CC(=O)Nc1ccc(OCc2ccccc2)cc1)=N\NC(=O)C(=O)Nc1ccccc1C`, the z-score was determined as 0.266.

For the compound `CC(C)(C)NC(=O)CSc1nncn1NCc1c(Cl)cccc1Cl`, the z-score is -0.104.

Compound `CCOC(=O)c1c(NC(=O)c2ccnn2C)sc(C)c1C` showed a z-score of -0.247.

In turn, `Nc1ccc(N2CCN(CCCCN3C(=O)C4CCCN4C3=O)CC2)cc1` (stereo not drawn) displayed a z-score of -0.207.

On to `[O-]C1=N/[N+](=C/c2ccc(Cl)c(Cl)c2)CC1`, for which the z-score was determined as 0.124.

`Cc1csc(NC(=O)CCN2C(=O)c3ccccc3S2(=O)=O)n1` registered a z-score of -0.105.

`Cc1ccc(Cl)cc1N1CCN(C(c2cccnc2)c2nnnn2C2CCCCC2)CC1` (stereo not drawn) returned a z-score of 0.333.

`CC(C)Oc1ccc(C(=O)Nc2nnc(SCC(=O)N3CCOCC3)s2)cc1` registered a z-score of -0.138.

In turn, `CN1C(=O)CSc2ccc(C(=O)O)cc21` had a z-score of 0.419.

On to `CCC(C)c1ccccc1NC(=O)COC(=O)c1ccc(C)c(NC(=O)c2ccco2)c1` (stereo not drawn), for which the z-score is -0.223.

Consider `C/C(=N\Nc1ccc([N+](=O)[O-])cc1)c1ccc(N)cc1`, for which the z-score turned out to be 0.518.

For the compound `CC(C)c1ccc(/C=N/NC(=O)c2nnn(-c3nonc3N)c2CSC2=NCCS2)cc1`, the z-score is -0.289.

Compound `COCCCN(C(=S)Nc1cccc(Cl)c1)C(C)c1ccncc1` (stereo not drawn) yielded a z-score of -2.09.

With `O=C(CN1CCN(Cc2ccccc2)CC1)Nc1ccc(S(=O)(=O)N2CCOCC2)cc1`, the z-score is -0.231.

As to `CCCC(=O)N1c2ccccc2[C@@H](N(C(C)=O)c2ccccc2)C[C@H]1C`, the z-score is -0.554.

As for `COc1cc2c(=O)n(Cc3ccccc3)c(=O)n(CC(=O)NCc3ccco3)c2cc1OC`, the z-score turned out to be 0.453.

The compound `Brc1ccc(NCc2cccc3ccccc23)nc1` displayed a z-score of -0.475.

The compound `CCc1nc(N[C@H](C(=O)O)C(C)CC)c2oc3ccccc3c2n1` (stereo partly drawn) showed a z-score of -0.708.

Consider `Cn1ncc2c(Nc3ccc4ccccc4c3)ncnc21`, for which the z-score is -0.0116.

Compound `CCCc1nc2ccccc2c(C(=O)OCC(=O)Nc2ccc(S(=O)(=O)N3CCOCC3)cc2)c1CC` displayed a z-score of -1.19.

The compound `FC(F)(F)C1=CC(c2ccccc2)=NCCN1` returned a z-score of -0.25.

Compound `CN1CCN(c2ccc([N+](=O)[O-])cc2NC(=O)c2ccccc2)CC1` came in with a z-score of -0.374.

In turn, `O=C(CN1C(=O)c2ccccc2C1=O)N1CCN(c2ccccn2)CC1` showed a z-score of -0.293.

As for `COCCn1c(C23CC4CC(CC(C4)C2)C3)n[nH]c1=S`, the z-score was 0.00477.

For the compound `CC(=O)Nc1ccc(N2CCCC2)cc1`, the z-score worked out at 0.743.

`COc1ccccc1N1C(C)=CC(=C(C#N)c2nc3ccccc3s2)C=C1C` showed a z-score of 0.0828.

On to `c1ccc(Nc2nc(-c3cccs3)cs2)nc1`, for which the z-score was -0.142.

For the compound `O=C(NC1CCCC1)c1ccc(S(=O)(=O)N2CCOCC2)cc1`, the z-score was -0.0766.

For `CC(=O)N(c1ccc2oc(=O)sc2c1)S(=O)(=O)c1ccccc1`, the z-score was -0.932.

As to `CC(NC(=O)Cc1ccccc1[N+](=O)[O-])c1ccccc1` (stereo not drawn), the z-score is -0.261.

As for `COc1ccc(/C=N/NC(=O)c2nn(-c3ccccc3)c(=O)c3c(N)scc23)cc1`, the z-score is -0.303.

Consider `COc1ccccc1NS(=O)(=O)c1cccc(C(=O)N/N=C/c2ccc(N3CCOCC3)cc2)c1`, for which the z-score was 0.115.

`O=C(COc1ccccc1)NCc1nnc2c3ccccc3c(-c3ccccc3)nn12` had a z-score of -0.698.

As for `Cc1nc(N)[nH]c(=O)c1CCC(=O)OCC(C)C`, the z-score was 0.18.

`CC1=CC(C)(C)Nc2ccccc21` came in with a z-score of -0.0658.

For the compound `COc1ccc(C(=O)Cn2nnc(-c3cccs3)n2)cc1`, the z-score was -0.191.

The compound `COCCN1C(=O)c2oc3ccccc3c(=O)c2C1c1cccc(O)c1` (stereo not drawn) gave a z-score of 0.0384.

`Cn1cnnc1SCC(=O)Nc1cccc(S(=O)(=O)N2CCCCCC2)c1` had a z-score of -0.218.

Turning to `COC(=O)c1ccc(C)c(-n2c(C)cc(C=O)c2C)c1`, the z-score turned out to be 0.134.

Compound `COc1ccc2c(c1)-c1c(ssc1=S)C(C)(C)N2C(=O)CSC1=NCCS1` came in with a z-score of -0.346.

As for `CCOc1ccc(NC(=O)c2ccco2)c([N+](=O)[O-])c1`, the z-score was 0.00803.

For `C=CCN(CC=C)c1cnn(-c2nc3ccccc3[nH]2)c(=O)c1Cl`, the z-score was -0.513.

In the case of `Cc1ccc(-c2nn3c(C)nnc3s2)cc1NC(=O)c1ccc(Br)o1`, the z-score amounted to 0.573.

`O=C1/C(=C\c2ccncc2)SC(=S)N1C1CCCCC1`: the z-score is -0.405.

`CCc1ccccc1SCc1noc(C(=O)NCC2CCCO2)c1C(=O)O` (stereo not drawn) had a z-score of -0.201.

Turning to `O=C(NCCc1ccccc1)c1noc2c1CCCCC2`, the z-score was 0.00432.
